# Data as given in PubChem BioAssay AID1346428 (National Center for Advancing Translational Sciences (NCATS), 2018).
# Values joined by “and” are separate entries in the source; they are usually repeats but may differ in a detail not shown here. Identical values can stand only once. The campaign covered roughly 48,000 compounds. About 1,200 (2.5%) were called active. Inconclusive results (about 2%) are left out.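 How the source made its calls: active means activation of at least 60% and not above a set upper limit (about 1 call in 100 departs from these limits); inconclusive means activation of 40% to 60%, or above that upper limit; inactive means activation under 40%.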 The list shows a part of the results.
# Molecular target: Probable G-protein coupled receptor 32 (Homo sapiens) (UniProt O75388)
# Assay: qHTS for Agonists of Human Resolvin D1 Receptor DRV1; further: 0% is about no effect
# Conditions: CHO-K1 GPR32 beta-arrestin PathHunter luminescence, 90 min; at 76.9 µM; hits give high values; zero percent set by DMSO-only wells
# Procedure, shortened: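 PathHunter enzyme-fragment complementation, CHO-K1 GPR32 stable line; 2,500 cells/well, overnight attach; cpd 90 min 37 °C 5% CO2; detection reagent 1 h RT; chemiluminescence. DMSO = EC0.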
# Sequence of UniProt O75388 (O75388 whole entry, looked up): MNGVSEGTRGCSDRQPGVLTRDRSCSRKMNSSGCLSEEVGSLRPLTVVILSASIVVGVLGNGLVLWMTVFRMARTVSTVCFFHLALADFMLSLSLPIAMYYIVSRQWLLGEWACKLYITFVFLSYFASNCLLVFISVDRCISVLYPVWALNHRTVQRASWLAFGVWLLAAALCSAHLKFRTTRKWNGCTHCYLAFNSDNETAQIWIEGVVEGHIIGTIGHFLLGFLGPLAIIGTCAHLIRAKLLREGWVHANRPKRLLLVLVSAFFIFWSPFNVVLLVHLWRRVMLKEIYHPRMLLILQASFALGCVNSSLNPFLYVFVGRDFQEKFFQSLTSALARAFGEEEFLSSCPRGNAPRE
row,Structure (SMILES),activation
1,COc1ccc(CNC(=O)CC2Oc3ccc(C)cc3NC2=O)cc1 (stereo not drawn),inactive: -7.56%
2,COc1cccc(CC(=O)Nc2ccc3nc(Nc4cccc(C(F)(F)F)c4)cc(C)c3c2)c1,inactive: 28.8%
3,COC(=O)c1cc2oc3ccccc3c2n1CC(=O)Nc1ccc(F)c(Cl)c1,inactive: -16.1%
4,Cc1ccc(S(=O)(=O)N2CCc3cc(C(=O)Nc4c(C)cccc4C(C)C)ccc32)cc1,inactive: 2.41%
5,Cc1cccc(Cn2c(CN3CCCC(C)C3)nc3c2c(=O)n(C)c(=O)n3C)c1 (stereo not drawn),inactive: -13.8%
6,CCOc1ccc(CCNC(=O)c2nn(C)c3c2CSc2ccc(C)cc2-3)cc1OCC,inactive: -18.5%
7,COc1ccc(CCNc2nc(SCc3cccc(Cl)c3)nc3ccccc23)cc1OC,inactive: -15.9%
8,COCCCNC(=O)c1ccc(-n2c(-c3ccccc3)cc3c2CCCCC3)cc1,inactive: -15.9%
9,CC[C@H](C)C(=O)O[C@H]1CCC=C2C=C[C@H](C)[C@H](CC[C@@H]3C[C@@H](O)CC(=O)O3)[C@H]21,inactive: -18.7%
10,O=C(NCc1ccccc1)c1nc(-c2ccc(Cl)cc2)n2c1CCCCC2,inactive: -17.2%
11,CCc1nonc1NC(=O)c1oc2ccc(Cl)cc2c1C,inactive: -3.31%
12,CCOC(=O)c1c(NC(=O)CSc2cn(CCNC(=O)c3ccc(OCC)cc3)c3ccccc23)sc2c1CCC2,inactive: 14.2%
13,Cc1ccc(Cl)cc1NC(=O)Cn1c(SCC(=O)NCc2ccccc2)nc2ccccc21,inactive: -1.85%
14,Clc1ccc2nc(-c3cccs3)c(Nc3ccc4c(c3)OCCO4)n2c1,inactive: -15.2%
15,CCOC(=O)c1cc(OC(=O)c2cc(OC)cc(OC)c2)n(-c2ccccc2)n1,inactive: 10.9%
16,CC1=C(C(=O)OC2CCCCCC2)C(c2ccc(Cl)cc2Cl)CC(=O)N1 (stereo not drawn),inactive: 7.39%
17,CC1Cc2cc(S(=O)(=O)NCc3ccccc3)ccc2N1C(=O)C1CCC1 (stereo not drawn),inactive: 32%
18,CCOC(=O)c1ccc(NC(=O)CSc2ncc(S(=O)(=O)c3ccc(C)c(Cl)c3)c(=O)[nH]2)cc1,inactive: 35.4%
19,CN(C)c1ccc(NC(=O)Cn2cc(S(=O)(=O)Cc3ccccc3Cl)c3ccccc32)cc1,inactive: -0.775%
20,COc1ccc(CCNC(=O)CCCCn2c(=O)c3ccccc3n(Cc3ccccc3)c2=O)cc1OC,inactive: -22.8%
21,Fc1ccccc1N1CCN(c2ncnc3c2nc2n3CCCC2)CC1,inactive: 36.6%

row,Structure (SMILES),activation
1,CCOCCc1nn2c(=O)cc(COC(=O)c3ccccc3NC(=O)c3ccc(C)cc3)nc2s1,inactive: -11.9%
2,CCOc1ccc(NC(=O)Cn2cc(C(=O)c3ccc(C)cc3)c(=O)c3cc4c(cc32)OCO4)cc1,inactive: 6.13%
3,CCc1ccc(CN(Cc2ccco2)C(=O)c2cc(-c3ccc(C)c(F)c3)on2)cc1,inactive: -15.3%
4,Nc1cc(C(Cl)=C(Cl)Cl)c(S(N)(=O)=O)cc1S(N)(=O)=O,inactive: 2.54%
5,CCCCN(C)c1nnc(NC(=O)Nc2ccc(Br)c(C)c2)s1,inactive: 0.28%
6,CCn1cc2nc(SCC(=O)Nc3ccc(OC)cc3OC)n(Cc3ccc(Cl)cc3)c(=O)c2n1,inactive: -11.4%
7,Cc1ccc2nc3c(c(Nc4ccc(C)c(C)c4)c2c1)CCC3,active: 101%
8,CCn1c2c(c(=O)n3ncc(C(=O)Nc4ccc(Cl)cc4C)c13)CN(Cc1ccc(OC)cc1)CC2,inactive: 13.9%
9,Brc1cccc(-c2nnn3c2nc(N2CCCCC2)c2ccccc23)c1,inactive: 1.74%
10,CCCn1c(=O)c2sccc2n2c(CCCC(=O)NC3CCCCC3)nnc12,inactive: -6.49%
11,Cc1ccc(F)cc1S(=O)(=O)N1CCC(c2nc3ccccc3s2)CC1,inactive: 4.67%
12,O=C(CNS(=O)(=O)c1cccs1)N1CCN(c2ccccc2F)CC1,inactive: -7.36%
13,COc1ccc(C2C=C(c3ccc(Cl)cc3)Nc3nc(NC(=O)CCC(=O)O)nn32)cc1 (stereo not drawn),inactive: 20.5%
14,Cc1ccccc1Nc1c(-c2c[nH]c3ccccc23)nc2cccc(C)n12,active: 63.1%
15,Cc1ccccc1Cn1c(C)c(CNCCCc2ccccc2)c(C(=O)O)c1C,inactive: 10.6%
16,COc1ccc(CCN(C)CCCC(C#N)(c2cc(OC)c(OC)c(OC)c2)C(C)C)cc1OC (stereo not drawn),inactive: -10.7% and inactive: -19.7%
17,Cc1ccc(N(Cc2cccs2)C(=O)c2ccccc2[N+](=O)[O-])cc1,inactive: -30.4%
18,Cc1ccc(NC(=O)CCc2nc3cccnc3n2-c2ccccc2)cc1Cl,inactive: -1.42%
19,COc1ccc(-c2csc3nc(-c4ccc(C)cc4)oc(=O)c23)cc1OC,inactive: 14.1%
20,O=c1c2sc3ccccc3c2n(Cc2ccc(Cl)cc2)c(=O)n1Cc1ccco1,inactive: -18.4%
21,O=C(Nc1ccc(F)cc1Cl)c1cnc(N2CCOCC2)c2ccccc12,inactive: -17.3%

row,Structure (SMILES),activation
1,CCC(C)NC(=O)Cn1c(=O)c2cccn2c2ccc(F)cc21 (stereo not drawn),inactive: -16.4%
2,CCCOc1cccc(C(=O)N2CCCCC2CCN2CCCCC2)c1 (stereo not drawn),inactive: -4.49%
3,Cc1ccc(OCc2cc(=O)n3c(-c4ccccc4)csc3n2)cc1,inactive: 17.8%
4,COc1ccc(C(=O)Nc2nc(-c3nnn(-c4cc(OC)ccc4OC)c3C)ns2)cc1,inactive: -0.943%
5,O=C(Cn1nnc(-c2cccc(C(F)(F)F)c2)n1)NCc1ccc(F)cc1,inactive: 5.68%
6,Cc1c(C(=O)Oc2ccc(Br)cc2)sc2ncn(Cc3ccccc3F)c(=O)c12,inactive: -10.8%
7,Cc1ccc(NC(=O)C(=O)NCC(c2ccc3c(c2)OCO3)N2CCN(C)CC2)cc1C (stereo not drawn),inactive: 8.75%
8,COc1cc(NC(=O)Nc2c[nH]c(=O)[nH]c2=O)cc(OC)c1OC,inactive: -12.4%
9,CC(C)CCNC(=O)Cn1cc(S(=O)(=O)Cc2ccc(F)cc2)c2ccccc21,inactive: -9.33%
10,CCN(CC)S(=O)(=O)c1ccc2c(c1)c(=O)c(C(=O)N1CCN(c3ccccc3OC)CC1)cn2C,inactive: -5.48%
11,O=C(NCCCN1CCN(c2ccccc2F)CC1)c1sc2ncccc2c1-n1cccc1,inactive: -8.25%
12,COc1cccc2cc(-c3nc4ccc(C)cc4[nH]3)c(=O)oc12,inactive: 12.3%
13,CCCCOc1ccc(S(=O)(=O)n2nc(C)c(S(=O)(=O)N3CCCCCC3)c2C)cc1,inactive: -6.78%
14,O=C1CCSC2(C(=O)N(Cc3ccccc3)c3ccccc32)N1c1ccccc1 (stereo not drawn),inactive: -36.9%
15,CCCC(=O)OC1=C(C(C)=O)N(Cc2ccccc2)S(=O)(=O)c2ccccc21,inactive: -6.74%
16,CC(=O)N1c2ccc(S(=O)(=O)NCC3CCC(C(=O)Nc4cccc(C)c4)CC3)cc2CC1C (stereo not drawn),inactive: 0.525%
17,Nc1ncnc2c1c(I)cn2[C@@H]1C[C@H](N)[C@@H](O)[C@H]1O,inactive: 4.02%
18,O=C(CCS(=O)(=O)c1cc2c(cc1Cl)NC(=O)CO2)NCc1ccccc1,inactive: 6.5%
19,CCN(Cc1ccccc1)S(=O)(=O)c1ccc(N2CCCCS2(=O)=O)cc1,inactive: 24%
20,CCCCNC(=O)c1cnc2c(-c3ccc(OCC)c(OCC)c3)c(C)nn2c1-c1ccccc1,inactive: 2.21%
21,CCc1ccc2nc(N3CCC(C(=O)NCCC(C)C)CC3)sc2c1,inactive: -2.82%

row,Structure (SMILES),activation
1,Cc1ccc(C)c(NC(=O)Cn2c(=O)n(CCCS(=O)(=O)C3CCCCC3)c(=O)c3ccccc32)c1,inactive: -2.63%
2,O=C(Cn1c(-c2cccs2)cc2cc(Cl)ccc21)N1CCCCC1,inactive: -11.1%
3,Cc1ccc(NC(=O)C2CCCN(S(=O)(=O)c3ccc4c(c3)CCCC(=O)N4)C2)cc1N(C)C (stereo not drawn),inactive: 18.5%
4,COc1ccc(Cl)cc1C(=O)NCC(c1ccc(N(C)C)cc1)N1CCCC1 (stereo not drawn),inactive: -3.9%
5,CN1CCN(c2c(F)cc3c(=O)c(C(=O)O)cn(CCF)c3c2F)CC1,inactive: -5.48%
6,Cc1ccc(-c2ccc(CCC(=O)O)n2-c2ccc(C)c(Cl)c2)cc1,inactive: 3.24%
7,CCOc1cc(C(=O)Nc2ccc(-c3nnc4n3CCCCC4)cc2)cc(OCC)c1OCC,inactive: 49.6%
8,Fc1ccc(-c2nnn3c2nc(NCc2ccccc2)c2ccccc23)cc1,inactive: -8.33%
9,Cc1ccc2nc(/C(C#N)=C/c3ccc(-c4ccc(C(=O)OC(C)C)cc4)o3)[nH]c2c1,inactive: -12.4%
10,Cc1ccc2c(c1)c1c(c(=O)n(-c3ccccc3)c(=O)n1CC(=O)c1ccc(Cl)cc1)n2C,inactive: -0.358%
11,O=C1CN(C(=O)c2c(F)cccc2Cl)C(c2ccc(F)cc2)c2cc(Br)ccc2N1 (stereo not drawn),inactive: -31.1%
12,Cn1c(=O)n(C)c2cc(N3CCOCC3)c(NS(=O)(=O)c3ccc(F)cc3)cc21,inactive: -25.2%
13,CCOc1ccc(NC(=O)CSc2nccn2C2CCCC2)cc1,inactive: -18.4%
14,CN(C(=O)CSc1nc2ccc(NC(=O)c3cccs3)cc2s1)c1ccccc1,inactive: 13.7%
15,COc1ccc(-n2c(=O)c3c4c(sc3n(CC(=O)C(C)(C)C)c2=O)CCCC4)c(OC)c1,inactive: -3.91%
16,CCc1ccc(CNC(=O)C2CCN(C(=O)c3ccc(-n4c(C)cc5ccccc54)s3)CC2)cc1,inactive: -13.9%
17,COC(=O)c1cccc(CN2C(=O)SC(Nc3ccccc3C)C2=O)c1 (stereo not drawn),inactive: -84.8%
18,Cc1ccc(CN2C(=O)CN(C3CCCCCC3)C(=O)C2c2ccc(F)cc2)cc1 (stereo not drawn),inactive: -12.6%
19,CC(=O)c1ccc(NC(=O)CSc2nc3c(=O)n(C)c(=O)n(C)c3n2C)cc1,inactive: -2.9%
20,CCCSc1nnc(NC(=O)Cc2coc3cc(C)ccc23)s1,inactive: -7.78%
